In the supplement of paper PMC8728848:
The list shows a part of the results.

Key:
Assay in all cases: glycan array binding signal (z-score within array); higher = stronger binding
Settings in all cases: glycan notation: IUPAC condensed, linker removed
[1] = target: Neu5Ac(a2-6)Gal(b1-4)GlcNAc(b1-2)Man(a1-6)[GlcNAc(b1-2)Man(a1-3)]Man(b1-4)GlcNAc(b1-4)GlcNAc
Procedure, shortened: (§1)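 Glycan array data came from 3228 arrays in the Consortium for Functional Glycomics database, and only arrays with an available protein sequence were kept. Glycan names were put into IUPAC-condensed notation, and columns mapping to the same glycan were averaged. The binding signal is a within-array Z-score, averaged across arrays of one protein sequence run at different concentrations or buffers and across linkers. A negative Z-score can be read as non-binding.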

[2] = target: Neu5Ac(a2-6)Gal(b1-4)GlcNAc(b1-2)Man(a1-6)[Man(a1-3)]Man(b1-4)GlcNAc(b1-4)GlcNAc
Procedure, shortened: as §1

[3] = target: Neu5Ac(a2-6)Gal(b1-4)GlcNAc(b1-2)[Neu5Ac(a2-6)Gal(b1-4)GlcNAc(b1-4)]Man(a1-3)[GlcNAc(b1-4)][Neu5Ac(a2-6)Gal(b1-4)GlcNAc(b1-2)[Neu5Ac(a2-6)Gal(b1-4)GlcNAc(b1-6)]Man(a1-6)]Man(b1-4)GlcNAc(b1-4)GlcNAc
Procedure, shortened: as §1

[4] = target: Neu5Ac(a2-6)Gal(b1-4)GlcNAc(b1-2)[Neu5Ac(a2-6)Gal(b1-4)GlcNAc(b1-4)]Man(a1-3)[GlcNAc(b1-4)][Neu5Ac(a2-6)Gal(b1-4)GlcNAc(b1-4)Man(a1-6)]Man(b1-4)GlcNAc(b1-4)GlcNAc
Procedure, shortened: as §1

[5] = target: Neu5Ac(a2-6)Gal(b1-4)GlcNAc(b1-2)[Neu5Ac(a2-6)Gal(b1-4)GlcNAc(b1-6)]Man(a1-6)[Neu5Ac(a2-6)Gal(b1-4)GlcNAc(b1-2)Man(a1-3)][GlcNAc(b1-4)]Man(b1-4)GlcNAc(b1-4)GlcNAc
Procedure, shortened: as §1

[6] = target: Neu5Ac(a2-6)Gal(b1-4)GlcNAc(b1-3)Gal(b1-3)GlcNAc
Procedure, shortened: as §1

[7] = target: Neu5Ac(a2-6)Gal(b1-4)GlcNAc(b1-3)Gal(b1-4)GlcNAc
Procedure, shortened: as §1

[8] = target: Neu5Ac(a2-6)Gal(b1-4)GlcNAc(b1-3)Gal(b1-4)GlcNAc(b1-2)Man(a1-3)[Neu5Ac(a2-6)Gal(b1-4)GlcNAc(b1-3)Gal(b1-4)GlcNAc(b1-2)Man(a1-6)]GalNAc
Procedure, shortened: as §1

[9] = target: Neu5Ac(a2-6)Gal(b1-4)GlcNAc(b1-3)Gal(b1-4)GlcNAc(b1-3)Gal(b1-4)GlcNAc
Procedure, shortened: as §1

[10] = target: Neu5Ac(a2-6)Gal(b1-4)GlcNAc(b1-3)Gal(b1-4)GlcNAc(b1-3)Gal(b1-4)GlcNAc(b1-2)Man(a1-3)[Neu5Ac(a2-6)Gal(b1-4)GlcNAc(b1-3)Gal(b1-4)GlcNAc(b1-3)Gal(b1-4)GlcNAc(b1-2)Man(a1-6)]GalNAc
Procedure, shortened: as §1

[11] = target: Neu5Ac(a2-6)Gal(b1-4)GlcNAc(b1-3)Gal(b1-4)GlcNAc(b1-3)GalNAc
Procedure, shortened: as §1

[12] = target: Neu5Ac(a2-6)Gal(b1-4)GlcNAc(b1-3)Gal(b1-4)GlcNAc(b1-3)[Neu5Ac(a2-6)Gal(b1-4)GlcNAc(b1-3)Gal(b1-4)GlcNAc(b1-6)]GalNAc
Procedure, shortened: as §1

[13] = target: Neu5Ac(a2-6)Gal(b1-4)GlcNAc(b1-3)Gal(b1-4)GlcNAc(b1-6)[Gal(b1-3)]GalNAc
Procedure, shortened: as §1

[14] = target: Neu5Ac(a2-6)Gal(b1-4)GlcNAc(b1-3)Gal(b1-4)[Fuc(a1-3)]GlcNAc(b1-3)Gal(b1-4)[Fuc(a1-3)]GlcNAc
Procedure, shortened: as §1

[15] = target: Neu5Ac(a2-6)Gal(b1-4)GlcNAc(b1-3)GalNAc
Procedure, shortened: as §1

[16] = target: Neu5Ac(a2-6)Gal(b1-4)GlcNAc(b1-3)[Neu5Ac(a2-6)Gal(b1-4)GlcNAc(b1-6)]GalNAc
Procedure, shortened: as §1

[17] = target: Neu5Ac(a2-6)Gal(b1-4)GlcNAc(b1-6)GalNAc
Procedure, shortened: as §1

[18] = target: Neu5Ac(a2-6)Gal(b1-4)GlcNAc(b1-6)[Gal(b1-3)GlcNAc(b1-3)]Gal(b1-4)Glc
Procedure, shortened: as §1

[19] = target: Neu5Ac(a2-6)Gal(b1-4)GlcNAc(b1-6)[Gal(b1-3)]GalNAc
Procedure, shortened: as §1

[20] = target: Neu5Ac(a2-6)Gal(b1-4)GlcNAc6S
Procedure, shortened: as §1

[21] = target: Neu5Ac(a2-6)GalNAc
Procedure, shortened: as §1

[22] = target: Neu5Ac(a2-6)GalNAc(b1-4)GlcNAc
Procedure, shortened: as §1

[23] = target: Neu5Ac(a2-6)GalNAc(b1-4)GlcNAc6S
Procedure, shortened: as §1

[24] = target: Neu5Ac(a2-6)GlcNAc(b1-4)GlcNAc
Procedure, shortened: as §1

[25] = target: Neu5Ac(a2-6)GlcNAc(b1-4)GlcNAc(b1-4)GlcNAc
Procedure, shortened: as §1

[26] = target: Neu5Ac(a2-8)Neu5Ac
Procedure, shortened: as §1

[27] = target: Neu5Ac(a2-8)Neu5Ac(a2-3)Gal(b1-3)GalNAc(b1-4)[Neu5Ac(a2-3)]Gal(b1-4)Glc
Procedure, shortened: as §1

[28] = target: Neu5Ac(a2-8)Neu5Ac(a2-3)Gal(b1-3)GalNAc(b1-4)[Neu5Ac(a2-8)Neu5Ac(a2-3)]Gal(b1-4)Glc
Procedure, shortened: as §1

[29] = target: Neu5Ac(a2-8)Neu5Ac(a2-3)Gal(b1-4)Glc
Procedure, shortened: as §1

[30] = target: Neu5Ac(a2-8)Neu5Ac(a2-3)Gal(b1-4)GlcNAc
Procedure, shortened: as §1

[31] = target: Neu5Ac(a2-8)Neu5Ac(a2-3)[Gal(b1-3)GalNAc(b1-4)]Gal(b1-4)Glc
Procedure, shortened: as §1

[32] = target: Neu5Ac(a2-8)Neu5Ac(a2-3)[GalNAc(b1-4)]Gal(b1-4)Glc
Procedure, shortened: as §1

[33] = target: Neu5Ac(a2-8)Neu5Ac(a2-8)Neu5Ac
Procedure, shortened: as §1

[34] = target: Neu5Ac(a2-8)Neu5Ac(a2-8)Neu5Ac(a2-3)Gal(b1-4)Glc
Procedure, shortened: as §1

[35] = target: Neu5Ac(a2-8)Neu5Ac(a2-8)Neu5Ac(a2-3)[Gal(b1-3)GalNAc(b1-4)]Gal(b1-4)Glc
Procedure, shortened: as §1

[36] = target: Neu5Ac(a2-8)Neu5Ac(a2-8)Neu5Ac(a2-3)[GalNAc(b1-4)]Gal(b1-4)Glc
Procedure, shortened: as §1

[37] = target: Neu5Ac(a2-8)Neu5Ac(a2-8)Neu5Ac(a2-8)Neu5Ac(a2-3)[GalNAc(b1-4)]Gal(b1-4)Glc
Procedure, shortened: as §1

[38] = target: Neu5Ac(a2-8)Neu5Gc(a2-3)Gal(b1-4)GlcNAc
Procedure, shortened: as §1

[39] = target: Neu5Ac(b2-6)Gal(b1-4)GlcNAc
Procedure, shortened: as §1

[40] = target: Neu5Ac(b2-6)GalNAc
Procedure, shortened: as §1

[41] = target: Neu5Ac9Ac(a2-3)Gal(b1-3)GlcNAc
Procedure, shortened: as §1

[42] = target: Neu5Ac9Ac(a2-3)Gal(b1-4)GlcNAc
Procedure, shortened: as §1

[43] = target: Neu5Ac9Ac(a2-6)Gal(b1-4)GlcNAc
Procedure, shortened: as §1

[44] = target: Neu5Gc(a2-3)Gal(b1-3)GlcNAc
Procedure, shortened: as §1

[45] = target: Neu5Gc(a2-3)Gal(b1-3)[Fuc(a1-4)]GlcNAc
Procedure, shortened: as §1

[46] = target: Neu5Gc(a2-3)Gal(b1-4)Glc
Procedure, shortened: as §1

[47] = target: Neu5Gc(a2-3)Gal(b1-4)GlcNAc
Procedure, shortened: as §1

[48] = target: Neu5Gc(a2-3)Gal(b1-4)GlcNAc(b1-3)Gal(b1-4)GlcNAc(b1-2)Man(a1-3)[Neu5Gc(a2-3)Gal(b1-4)GlcNAc(b1-3)Gal(b1-4)GlcNAc(b1-2)Man(a1-6)]Man(b1-4)GlcNAc(b1-4)GlcNAc
Procedure, shortened: as §1

[49] = target: Neu5Gc(a2-3)Gal(b1-4)[Fuc(a1-3)]GlcNAc
Procedure, shortened: as §1

[50] = target: Neu5Gc(a2-3)Gal(b1-4)[Fuc(a1-4)]GlcNAc
Procedure, shortened: as §1

[51] = target: Neu5Gc(a2-6)Gal(b1-4)GlcNAc
Procedure, shortened: as §1

[52] = target: Neu5Gc(a2-6)GalNAc
Procedure, shortened: as §1

[53] = target: Neu5Gc(a2-8)Neu5Ac(a2-3)Gal(b1-4)GlcNAc
Procedure, shortened: as §1

[54] = target: Neu5Gc(a2-8)Neu5Gc(a2-3)Gal(b1-4)GlcNAc
Procedure, shortened: as §1

[55] = target: Neu5Gc(a2-8)Neu5Gc(a2-3)Gal(b1-4)GlcNAc(b1-3)Gal(b1-4)GlcNAc
Procedure, shortened: as §1

[56] = target: Neu5Gc(a2-8)Neu5Gc(a2-6)Gal(b1-4)GlcNAc
Procedure, shortened: as §1

[57] = target: Neu5Gc(b2-6)Gal(b1-4)GlcNAc
Procedure, shortened: as §1

B1: Gal 7 (Homo sapiens) (protein)
chain: MSNVPHKSSLPEGIRPGTVLRIRGLVPPNASRFHVNLLCGEEGGSDAALHFNPRLDTSEVVFNSKEGGSWGREERGPGVPFGRGQPFEVLIIASDDGFKAVVGDAQYHHFRHRLPLARVRLVEVGGDVQLDSVRIF
- glycan array binding signal (z-score) [1]: -0.26
- glycan array binding signal (z-score) [2]: -0.288
- glycan array binding signal (z-score) [3]: -0.233
- glycan array binding signal (z-score) [4]: -0.266
- glycan array binding signal (z-score) [5]: -0.274
- glycan array binding signal (z-score) [6]: -0.066
- glycan array binding signal (z-score) [7]: 0.174
- glycan array binding signal (z-score) [8]: 0.926
- glycan array binding signal (z-score) [9]: 0
- glycan array binding signal (z-score) [10]: 1.25
- glycan array binding signal (z-score) [11]: -0.258
- glycan array binding signal (z-score) [12]: -0.2
- glycan array binding signal (z-score) [13]: -0.301
- glycan array binding signal (z-score) [14]: -0.274
- glycan array binding signal (z-score) [15]: 0.203
- glycan array binding signal (z-score) [16]: 0.001
- glycan array binding signal (z-score) [17]: 0.369
- glycan array binding signal (z-score) [18]: -0.094
- glycan array binding signal (z-score) [19]: -0.265
- glycan array binding signal (z-score) [20]: -0.284
- glycan array binding signal (z-score) [21]: -0.315
- glycan array binding signal (z-score) [22]: -0.38
- glycan array binding signal (z-score) [23]: -0.136
- glycan array binding signal (z-score) [24]: -0.318
- glycan array binding signal (z-score) [25]: -0.266
- glycan array binding signal (z-score) [26]: -0.266
- glycan array binding signal (z-score) [27]: -0.224
- glycan array binding signal (z-score) [28]: -0.192
- glycan array binding signal (z-score) [29]: 0.101
- glycan array binding signal (z-score) [30]: -0.297
- glycan array binding signal (z-score) [31]: -0.117
- glycan array binding signal (z-score) [32]: -0.206
- glycan array binding signal (z-score) [33]: -0.331
- glycan array binding signal (z-score) [34]: -0.015
- glycan array binding signal (z-score) [35]: -0.191
- glycan array binding signal (z-score) [36]: -0.32
- glycan array binding signal (z-score) [37]: -0.227
- glycan array binding signal (z-score) [38]: -0.299
- glycan array binding signal (z-score) [39]: -0.328
- glycan array binding signal (z-score) [40]: -0.347
- glycan array binding signal (z-score) [41]: -0.346
- glycan array binding signal (z-score) [42]: -0.339
- glycan array binding signal (z-score) [43]: -0.307
- glycan array binding signal (z-score) [44]: 0.572
- glycan array binding signal (z-score) [45]: -0.334
- glycan array binding signal (z-score) [46]: -0.174
- glycan array binding signal (z-score) [47]: -0.336
- glycan array binding signal (z-score) [48]: -0.158
- glycan array binding signal (z-score) [49]: 0.064
- glycan array binding signal (z-score) [50]: -0.411
- glycan array binding signal (z-score) [51]: -0.292
- glycan array binding signal (z-score) [52]: -0.27
- glycan array binding signal (z-score) [53]: -0.294
- glycan array binding signal (z-score) [54]: -0.289
- glycan array binding signal (z-score) [55]: -0.286
- glycan array binding signal (z-score) [56]: -0.291
- glycan array binding signal (z-score) [57]: -0.301
